Molecules are shown by their SMILES. Values joined by “and” are separate entries in the source; they are usually repeats but may differ in a detail not shown here. Equal entries are not always repeated. The campaign covered roughly 410,000 compounds. About 310 (0.076%) were called active. Inconclusive results (about 2%) are left out. The call rests on the fitted dose curve; in most records, active means well fitted curve in the direction sought with a large enough effect; inconclusive means small, poorly fitted or top-dose-only effect; inactive means flat fitted curve, though single readings scatter. The entries are a selection whose mix differs from that of the whole data set.

Consider 16 molecules from PubChem BioAssay AID602310 (National Center for Advancing Translational Sciences (NCATS), 2012).
On the % scale 0 is the no-effect control and ±100 the full control effect.

UniProt Q9HC16, sequence (Q9HC16 whole entry, looked up): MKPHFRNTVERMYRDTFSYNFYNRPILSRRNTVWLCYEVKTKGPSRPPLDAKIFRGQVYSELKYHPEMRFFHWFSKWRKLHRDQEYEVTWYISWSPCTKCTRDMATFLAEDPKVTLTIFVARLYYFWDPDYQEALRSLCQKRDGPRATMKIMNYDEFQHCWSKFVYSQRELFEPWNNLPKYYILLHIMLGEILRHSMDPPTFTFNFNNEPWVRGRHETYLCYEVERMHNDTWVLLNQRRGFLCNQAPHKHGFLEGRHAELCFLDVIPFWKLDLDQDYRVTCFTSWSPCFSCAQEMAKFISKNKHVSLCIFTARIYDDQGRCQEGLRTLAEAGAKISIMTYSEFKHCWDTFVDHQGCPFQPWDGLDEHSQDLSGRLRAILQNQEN

This test deals with DNA dC->dU-editing enzyme APOBEC-3G (Homo sapiens) (UniProt Q9HC16). Nature of the test: qHTS for Inhibitors of Vif-A3G Interactions: qHTS.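 Further: hits raise eYFP signal because A3G escapes Vif-driven loss; nearly all actives have a fitted effect of over 60% in size.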 To be noted: HeLa A3G-eYFP + Vif (tagged APOBEC3G with the HIV-1 protein that degrades it), YFP fluorescence, overnight; at 46.1 µM (top of the series). From the text:
The recent discovery and characterization of host restriction factors, which provide a potent defense to invading retroviruses, has provided new targets for antiviral drug development. APOBEC3G (A3G) and APOBEC3F (A3F) are potent cytidine deaminases that block HIV-1 replication; HIV-1 expresses the Vif protein, which counteracts A3G and A3F by binding to them and inducing their proteasomal degradation. The Vif-A3G and Vif-A3F interactions provide two potential targets for development of small molecules which can interfere with the ability of Vif to degrade A3G or A3F. […] To identify inhibitors that can interfere with Vif mediated degradation of A3G and A3F, we have developed Hela cell lines that stably express A3G or A3F tagged with eYFP at the C-terminal end (A3G-eYFP or A3F-eYFP, respectively) and Vif. In the absence of an inhibitor, Vif induces degradation of A3G-eYFP and A3F-eYFP, and the cells are not fluorescent. In the presence of an inhibitor, it is expected that Vif will be unable to degrade A3G-eYFP and/or A3F-eYFP, resulting in an increase in yellow fluorescence. In this assays Vif A3G was screened against the Molecular Library Small Molecule Repository (MLSMR). NIH Chemical Genomics Center [NCGC] NIH Molecular Libraries Probe Centers Network [MLPCN] MLPCN Grant: MH093245 Assay Submitter (PI): Vinay Pathak, National Cancer Institute
5 uL of 700 cells/well of A3G-YFP cells are dispensed into black, clear bottom plates. The plates are incubated overnight at 37 deg C. 23 nL of compounds are added by pintool. The plates are incubated overnight at 37 deg C and then read on the TTP Acumen (Ex 488/ Em 500-530).
On the technique in general: qHTS replaces the single test concentration by a dilution series.
For the molecule `O=C1NC(=O)N(c2ccc3c(c2)OCO3)C(=O)/C1=C\c1ccc(N2CCCCC2)o1`, the activity, negative = active was inactive: -14.8%. For `O=C1NC(=O)N(Cc2ccccc2)C(=O)/C1=C/N1CCCc2ccccc21` the value was inactive: -6.41%; for `NC(N)=Nc1ccc2[nH]c3c(c2c1)C[C@@]1(O)[C@H]2Cc4ccc(O)c5c4[C@@]1(CCN2CC1CC1)[C@H]3O5`, inactive: -29.7%. To `Cc1cc(/C=C2/C(=O)NC(=O)N(c3ccc(Br)cc3)C2=O)c(C)n1C` belongs inactive: -9.58%; to `CCCCCCCCCCCCCCCC[n+]1ccccc1`, inactive: -14.3% and inactive: -20.7%. For `NC(N)=Nc1ccc2[nH]c3c(c2c1)C[C@@]1(O)[C@H]2Cc4ccc(O)c5c4[C@@]1(CCN2CC1CC1)C3O5` (stereo partly specified) the value was inactive: -0.804%; for `O=C1NC(=O)N(Cc2ccccc2)C(=O)/C1=C\C=C\c1ccco1`, inactive: -1.61%; for `CN(C)[C@@H]1C(=O)C(C(N)=O)=C(O)[C@@]2(O)C(=O)C3=C(O)c4c(O)cccc4[C@@](C)(O)C3[C@H](O)C12` (stereo partly specified), inactive: 3.89% and inactive: -7.65%. With `CN(C)C1C(=O)C(C(N)=O)=C(O)C2(O)C(=O)C3=C(O)c4c(O)cccc4C(C)(O)C3C(O)C12` (stereo unspecified), the activity, negative = active is inactive: -6.31%. For `COc1ccc(CNS(=O)(=O)c2cc3c(cc2C)N(C)CCO3)cc1` the value was inactive: -8.47%; for `C=C(C)[C@@H]1CC[C@]2(C(=O)O)CC[C@]3(C)[C@H](CC[C@@H]4[C@@]5(C)CC[C@H](O)C(C)(C)[C@@H]5CC[C@]43C)[C@@H]12`, inactive: 2.87%. `COc1cc([C@@H]2c3cc4c(cc3[C@H](OC(C)=O)[C@H]3COC(=O)[C@H]23)OCO4)cc(OC)c1OC`: the activity, negative = active was inactive: -47.6%. `COc1cccc(OC)c1-c1nn2c(-c3n[nH]c4c3CCC4)nnc2s1`: the activity, negative = active is inactive: -19.9%. For `CC(=O)OC(C)(C)/C=C/C(=O)[C@](C)(O)[C@H]1[C@H](O)C[C@@]2(C)[C@@H]3CC=C4[C@H](C[C@H](O)C(=O)C4(C)C)[C@]3(C)C(=O)C[C@]12C` the value was inactive: -18.8%. For `O=C1C=C2C=C[C@H]3C[C@]2(O1)[C@@H]1CCCCN13` the value was inactive: -17.5%; for `CC(=O)OC(C)(C)/C=C/C(=O)C(C)(O)C1C(O)CC2(C)C3CC=C4C(CC(O)C(=O)C4(C)C)C3(C)C(=O)CC12C` (stereo unspecified), inactive: -22.9%.
